# According to the supplement of paper PMC12355420:
# Counter-ions that a name gives are not always drawn. The list shows a part of the results. Rule as the data show it: active = 0.5 or less and inactive = the rest. Many values rest on one well or one pass, so single values are uncertain.
# Legend:
# Conditions in all cases: 50 µM; 24 h
# [1] = tested on: HeLa VPS33A reporter cells; assay: relative cell viability (CellMask signal) vs DMSO (fraction of DMSO); higher = less cytotoxic;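 also: primary screen of an FDA-approved drug library in HeLa reporter cells in 96-well format, CellMask signal normalized to DMSO-treated wells set as 1, under 0.5 deemed highly cytotoxic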
# [2] = tested on: HeLa VPS33A R498W KI + HA-SDC1-FLAG; assay: relative GAG core protein HA-SDC1 amount per cell number vs DMSO (fraction of DMSO); higher = more SDC1 (GAG core protein);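 also: HA-SDC1 level read out by In-Cell Western staining with an anti-HA antibody against the N-terminal tag, screening FDA-approved library drugs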
# [3] = tested on: HeLa VPS33A KO + NLuc-VPS33A R498W; assay: relative mutant VPS33A R498W amount (NanoLuc luminescence) vs DMSO (fraction of DMSO); HeLa model of a glycosaminoglycan (GAG) storage disease; KI is knock-in and KO knock-out; SDC1 is syndecan 1; higher = higher mutant VPS33A level;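 also: screen of an FDA-approved drug library, NanoLuc luminescence read after lysing the treated cells, taken as a measure of mutant VPS33A protein stability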
SMILES,relative cell viability [1],relative GAG core protein HA-SDC1 amount per cell number [2],relative mutant VPS33A R498W amount [3]
CCC(CC)O[C@@H]1C=C(C(=O)O)C[C@H](N)[C@H]1NC(C)=O [Oseltamivir acid],1.02,inactive: 1.6,1.41
Cc1nnc(C(C)C)n1C1C[C@H]2CC[C@@H](C1)N2CC[C@H](NC(=O)C1CCC(F)(F)CC1)c1ccccc1 (stereo in doubt) [Maraviroc],1.32,inactive: 1.04,0.934
O=C1c2c(O)cc(O)cc2OC(c2ccc(O)c(O)c2)C1O (stereo not given) [Taxifolin],1.02,inactive: 1.02,0.765
NC(CO)C(=O)O (racemic) [DL-Serine],0.989,inactive: 0.919,0.927
CN(C)CCN(Cc1ccccc1)c1ccccn1 [Tripelennamine HCl],1.19,inactive: 1.75,0.957
N=C(N)NC(=N)N1CCOCC1 [Moroxydine HCl],0.985,inactive: 1.1,1.31
Nc1cccc2c1C(=O)N(C1CCC(=O)NC1=O)C2=O (stereo not given) [Pomalidomide (CC-4047)],1.22,inactive: 1.1,0.933
CCCCOc1cc(C(=O)OCCN(CC)CC)ccc1N [Oxybuprocaine HCl],0.882,inactive: 0.973,1.1
O=c1[nH]cnc2nc[nH]c12 [Hypoxanthine],1.07,inactive: 0.863,1.1
OCCOc1ccc(/C(=C(/CCCl)c2ccccc2)c2ccccc2)cc1 [Ospemifene],1.36,inactive: 0.578,0.628
CN[C@H](CC(C)C)C(=O)N[C@H]1C(=O)N[C@@H](CC(N)=O)C(=O)N[C@H]2C(=O)N[C@H]3C(=O)N[C@H](C(=O)N[C@H](C(=O)O)c4cc(O)cc(O)c4-c4cc3ccc4O)[C@H](O)c3ccc(c(Cl)c3)Oc3cc2cc(c3O[C@@H]2O[C@H](CO)[C@@H](O)[C@H](O)[C@H]2O[C@H]2C[C@](C)(N)[C@H](O)[C@H](C)O2)Oc2ccc(cc2Cl)[C@H]1O [Vancomycin hydrochloride],1.26,inactive: 1.45,1.09
COc1ccc(-c2coc3cc(O)ccc3c2=O)cc1 [Formononetin],0.853,inactive: 0.716,1.21
CCOC(=O)[C@H]1O[C@@H]1C(=O)N[C@@H](CC(C)C)C(=O)NCCC(C)C,1.12,inactive: 1.07,2.36
Nc1ncn([C@H]2C[C@H](O)[C@@H](CO)O2)c(=O)n1,0.989,inactive: 1.04,1.58
CNC(=O)c1ccc(Nc2ncc(C(F)(F)F)c(NCc3nccnc3N(C)S(C)(=O)=O)n2)cc1 [Defactinib],1.07,inactive: 0.543,2.18
Cc1cn(-c2cc(NC(=O)c3ccc(C)c(Nc4nccc(-c5cccnc5)n4)c3)cc(C(F)(F)F)c2)cn1 [Nilotinib(AMN-107)],1.2,inactive: 1.56,0.49
NCCCC[C@H](N[C@@H](CCc1ccccc1)C(=O)O)C(=O)N1CCC[C@H]1C(=O)O [Lisinopril dihydrate],1.08,inactive: 0.964,1.25
COc1ccc([C@@H]2CC(=O)c3c(O)cc(O[C@@H]4O[C@H](CO[C@@H]5O[C@@H](C)[C@H](O)[C@@H](O)[C@H]5O)[C@@H](O)[C@H](O)[C@H]4O)cc3O2)cc1O [Hesperidin],1,inactive: 1.03,1.39
CCCNC(C)C(=O)Nc1ccccc1C (stereo not given) [Prilocaine],1.04,inactive: 0.84,1.42
Cn1c(=O)c2nc[nH]c2n(C)c1=O [Theophylline],1,inactive: 0.804,1.09
COc1ccnc(C[S+]([O-])c2nc3cc(OC(F)F)ccc3[nH]2)c1OC (stereo not given) [Pantoprazole],1.08,inactive: 0.743,0.85
O=C1Cc2cc(CCN3CCN(c4nsc5ccccc45)CC3)c(Cl)cc2N1 [Ziprasidone],1.19,inactive: 1.48,1.19
COC(=O)Nc1nc2cc(C(=O)c3ccccc3)ccc2[nH]1 [Mebendazole],0.734,active: 0.247,0.477
Nc1[nH]cnc2ncnc1-2 [Adenine],0.863,inactive: 1.21,1.76
Nc1ccc(S(N)(=O)=O)cc1 [Sulfanilamide],1.04,inactive: 0.834,1.12
c1c[nH]cn1 [Imidazole],1.06,inactive: 1.05,1.11
CNS(=O)(=O)Cc1ccc2[nH]cc(CCN(C)C)c2c1 [Sumatriptan],1.01,inactive: 1.04,1.26
NC(N)=Nc1nc(CSCC/C(N)=N/S(N)(=O)=O)cs1 [Famotidine],1.25,inactive: 1.28,1.59

SMILES,relative cell viability [1],relative GAG core protein HA-SDC1 amount per cell number [2],relative mutant VPS33A R498W amount [3]
Cc1cc(-c2ccc(/N=N/c3ccc4c(S(=O)(=O)O)cc(S(=O)(=O)O)c(N)c4c3O)c(C)c2)ccc1/N=N/c1ccc2c(S(=O)(=O)O)cc(S(=O)(=O)O)c(N)c2c1O [Evans Blue tetrasodium salt],1.95,inactive: 0.593,0.914
OC[C@H]1O[C@@H](O[C@H]2[C@H](O)[C@@H](O)C(O)O[C@@H]2CO)[C@H](O)[C@@H](O)[C@@H]1O (mixture of isomers) [Cellobiose],1.13,inactive: 0.951,1.02
CC(C)(C(=O)c1cccnc1)c1cccnc1 [Metyrapone],1.1,inactive: 0.793,1.04
C=C[C@H]1CN2CC[C@H]1C[C@@H]2[C@@H](O)c1ccnc2ccc(OC)cc12 [Quinidine],1.04,inactive: 0.855,1.37
NC(=O)CC[C@@H](N)C(=O)O [D-Glutamine],0.99,inactive: 1.07,1.21
CN(C)CCC=C1c2ccccc2COc2ccccc21 [Doxepin (hydrochloride)],0.93,inactive: 0.633,0.788
NCC[C@H](O)C(=O)N[C@@H]1C[C@H](N)[C@@H](O[C@H]2O[C@H](CN)[C@@H](O)[C@H](O)[C@H]2O)[C@H](O)[C@H]1O[C@H]1O[C@H](CO)[C@@H](O)[C@H](N)[C@H]1O [Amikacin],0.963,inactive: 1.04,1.07
CS(=O)(=O)Nc1ccc([N+](=O)[O-])cc1Oc1ccccc1 [Nimesulide],1.27,inactive: 0.689,0.981
C[C@H]1O[C@@H](n2cc(F)c(=O)[nH]c2=O)[C@H](O)[C@@H]1O [Doxifluridine],0.977,inactive: 0.763,1.24
O=C(O)c1ccccc1Nc1cccc(C(F)(F)F)c1 [Flufenamic acid],0.82,inactive: 1.1,1.03
Cc1cn(-c2cc(NC(=O)c3ccc(C)c(Nc4nccc(-c5cnccn5)n4)c3)cc(C(F)(F)F)c2)cn1 [Radotinib(IY-5511)],1.15,inactive: 1.06,1.04
Oc1ccc(/C=C/c2cc(O)cc(O)c2)cc1 [Resveratrol],0.933,inactive: 0.72,0.47
COc1ccc2[nH]c([S@@+]([O-])Cc3ncc(C)c(OC)c3C)nc2c1 [Esomeprazole Magnesium],0.988,inactive: 0.727,0.856
O=C[C@H](O)[C@@H](O)[C@H](O[C@H]1O[C@H](CO)[C@@H](O[C@H]2O[C@H](CO)[C@@H](O)[C@H](O)[C@H]2O)[C@H](O)[C@H]1O)[C@H](O)CO [Maltotriose],1.04,inactive: 0.838,1.44
CN1[C@@H](CC(=O)c2ccccc2)CCC[C@H]1C[C@H](O)c1ccccc1 [(-)-Lobeline hydrochloride],1.13,inactive: 0.711,1.08
COc1cc2nccc(Oc3ccc(NC(=O)Nc4cc(C)on4)c(Cl)c3)c2cc1OC [Tivozanib (AV-951)],0.864,inactive: 0.66,0.516
CCOc1cc(N)c(Cl)cc1C(=O)NCC1CN(Cc2ccc(F)cc2)CCO1 (stereo not given) [Mosapride Citrate],1.33,inactive: 1.29,0.931
C[C@H](Nc1ncnc2nc[nH]c12)c1cc2cccc(Cl)c2c(=O)n1-c1ccccc1,1.05,inactive: 0.873,0.44
Nc1nc2ccc(OC(F)(F)F)cc2s1 [Riluzole (hydrochloride)],0.901,active: 0.343,0.524
COc1cc2nc(N(C)CCCNC(=O)C3CCCO3)nc(N)c2cc1OC (stereo not given) [Alfuzosin HCl],0.972,inactive: 1.29,1.63
C[C@@H](O)[C@H]1C(=O)N2C(C(=O)O)=C(S[C@@H]3CN[C@H](CNS(N)(=O)=O)C3)[C@H](C)[C@H]12 [Doripenem],1.33,inactive: 1.07,1.1
CCC(C)n1ncn(-c2ccc(N3CCN(c4ccc(OCC5COC(Cn6cncn6)(c6ccc(Cl)cc6Cl)O5)cc4)CC3)cc2)c1=O (stereo not given) [Itraconazole],1.11,inactive: 1.09,1.51
O=c1c(O[C@@H]2O[C@H](CO)[C@H](O)[C@H](O)[C@H]2O)c(-c2ccc(O)c(O)c2)oc2cc(O)cc(O)c12 [Hyperoside],1.18,inactive: 0.856,1.2
N=c1nc(N2CCCCC2)cc(N)n1O [Minoxidil],1.19,inactive: 0.988,1.02
COc1cc(OC)c(C(=O)CCCN2CCCC2)c(OC)c1 [Buflomedil HCl],1.09,inactive: 0.781,1.24
N#CC(c1ccc(Cl)cc1)c1c(Cl)cc(-n2ncc(=O)[nH]c2=O)cc1Cl (stereo not given) [Diclazuril],1.13,active: 0.364,1.58
NS(=O)(=O)NCCNc1nonc1/C(=N/O)Nc1ccc(F)c(Br)c1,1.18,inactive: 0.564,0.546
